# In the supplement of paper PMC3334620:
# Whole data set: some 33,000 sequences, median “E-score (-0.5 to 0.5)” near -0.021, cut for the highest 2% near 0.32. The list shows a part of the results.
# Biological target: T1, Zap1 (UniProt P47043)
# T1 sequence: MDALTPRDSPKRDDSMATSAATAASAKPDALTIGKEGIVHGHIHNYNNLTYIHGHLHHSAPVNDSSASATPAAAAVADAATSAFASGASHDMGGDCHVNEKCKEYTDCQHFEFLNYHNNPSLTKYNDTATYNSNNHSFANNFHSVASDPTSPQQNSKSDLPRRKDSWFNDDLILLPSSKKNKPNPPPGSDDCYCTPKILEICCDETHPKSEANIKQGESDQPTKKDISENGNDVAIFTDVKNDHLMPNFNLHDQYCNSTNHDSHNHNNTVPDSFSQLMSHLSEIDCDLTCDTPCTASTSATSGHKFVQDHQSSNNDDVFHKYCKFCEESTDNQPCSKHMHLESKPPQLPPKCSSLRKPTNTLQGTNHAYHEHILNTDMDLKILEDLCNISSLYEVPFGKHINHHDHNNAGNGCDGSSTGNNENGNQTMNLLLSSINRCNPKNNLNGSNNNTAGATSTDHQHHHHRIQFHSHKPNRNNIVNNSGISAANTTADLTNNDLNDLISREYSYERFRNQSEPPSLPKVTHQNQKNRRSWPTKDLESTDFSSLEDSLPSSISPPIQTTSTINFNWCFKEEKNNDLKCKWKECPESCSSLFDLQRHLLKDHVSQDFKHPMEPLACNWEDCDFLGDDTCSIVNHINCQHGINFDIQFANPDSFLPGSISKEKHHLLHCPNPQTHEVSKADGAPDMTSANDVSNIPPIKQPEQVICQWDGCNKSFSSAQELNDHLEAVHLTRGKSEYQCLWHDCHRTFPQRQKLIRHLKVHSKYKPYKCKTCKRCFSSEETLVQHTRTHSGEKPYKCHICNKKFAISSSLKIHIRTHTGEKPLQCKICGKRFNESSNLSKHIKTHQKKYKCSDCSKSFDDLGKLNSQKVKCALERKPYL
# Experiment: PBM E-score (8-mer binding enrichment) (E-score (-0.5 to 0.5)); higher = stronger / more preferred TF binding; most listed sequences are background and not binding sites
# Settings: protein concentration: 200 nM; construct: GST-full length
# How it was run: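 Full-length yeast transcription factors or their DNA-binding domains, GST-tagged and expressed with PURExpress, were applied at about 100-200 nM to universal all-10-mer Agilent arrays. These arrays had been made double-stranded by primer extension on fresh or once-stripped slides. Detection used fluorescent anti-GST, normalisation used masliner, and E-scores for ungapped eight-base words pooled with reverse complements came from the Universal PBM Analysis Suite.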
row,Sequence,PBM E-score
1,ATCCCTGA,-0.173
2,AGGGTCCC,0.32
3,CCGAAAAG,0.155
4,GCGAAGCC,-0.188
5,CTGTCTCA,-0.134
6,CCGGCTCC,-0.104
7,AGTGCGGA,-0.0454
8,AGGGCCAC,0.0845
9,CAATATCC,0.0427
10,GTTCGACA,0.0917
11,AAACAGAT,0.142
12,AGCTTTGG,-0.00406
13,ACGTAATG,-0.0815
14,AATTAAAT,0.0722
15,CCATTTCC,0.0771
16,CAGCCGAG,0.0143
17,GCGTTTTA,-0.0504
18,CACGATAC,-0.0853
19,GTCCAAGA,-0.0994
20,TCACGCCA,-0.0187
21,AATAATAA,0.242
22,AGACTCCA,-0.3
23,AAGTACCA,0.211
24,TATAGGCA,-0.0951
25,TAGTTGAA,0.186

row,Sequence,PBM E-score
1,CTCTCAAA,0.0974
2,ATAACAGC,-0.0193
3,CCACGTTC,-0.258
4,AAGCTGGT,0.091
5,TGAAGCCA,-0.0449
6,ATTGCTTG,-0.0496
7,GGTAAGGA,-0.00782
8,CGTCCACC,-0.301
9,AAAACAAT,0.00317
10,CATTGGGC,-0.0785
11,ATCCTTCA,-0.0682
12,GACTTCAC,-0.198
13,GCACTCAC,-0.09
14,GCGAGCGC,-0.0722
15,GGCTTAAA,0.159
16,TGAGCGCA,-0.131
17,CGCCCAGA,-0.149
18,AGGGCCCC,-0.0584
19,AGGGGTCC,0.0654
20,ACCGTTTG,0.223
21,CCTGGCGA,-0.155
22,AAAGTTGC,-0.156
23,TACCGTCA,0.201
24,TAGCTCAA,0.0268
25,AGGTCTTG,0.0687

row,Sequence,PBM E-score
1,AAGGGGGA,-0.245
2,ATTGTATA,0.153
3,TGGCAACA,-0.0616
4,CGGAGGAA,-0.349
5,AATCCAGT,-0.0583
6,CAACAGGC,-0.233
7,CCTTAGGA,0.179
8,TATTTCAA,0.264
9,AGGCTAGG,-0.205
10,AAGGCGGT,0.126
11,CGATCATC,-0.045
12,TTGCACAA,0.0882
13,AGCATGTG,-0.0756
14,CATGATGA,0.0134
15,TACGCGAA,0.154
16,CCGCTAAA,0.0911
17,CCCAGCCC,-0.174
18,AAGTATCG,0.0197
19,GGATCCAA,-0.0158
20,GGAACGTA,-0.253
21,GCATTGCC,-0.25
22,CGCGGAAG,-0.00159
23,ACCGGTGC,-0.0626
24,AATAGTTC,0.0137
25,AATAACTC,0.192

row,Sequence,PBM E-score
1,GAAACTTC,-0.031
2,ATCCGTCC,-0.253
3,CGGGTACC,0.432
4,ATTTCCAC,-0.00072
5,AGCTCTTG,-0.246
6,ATTAAAGG,0.267
7,ACGGCGGC,-0.295
8,AGTGCTGA,-0.168
9,ACGAACCG,-0.0396
10,CCCTTACC,0.208
11,AATATTAA,0.102
12,AGCCTAAT,-0.212
13,ATATATGA,0.034
14,CGGTCCAG,-0.148
15,AACAACGC,0.0483
16,CTTTCGTA,0.0293
17,ACGCTAGG,-0.227
18,GACGTACC,-0.177
19,GCCAGGCA,-0.223
20,GTATGATA,0.14
21,ACGTCAAA,0.00961
22,CACCCTTA,0.269
23,AAGCTTGG,-0.126
24,ACGCCATG,0.038
25,CGCTGGTA,0.0375

row,Sequence,PBM E-score
1,AACCACCT,0.247
2,AGGAGGAA,-0.008
3,ACCCAAGT,0.114
4,AACGATCG,-0.0465
5,ATACTGGG,-0.113
6,AACTAGTC,-0.0128
7,AGCGTGAC,0.132
8,CTCTTCCC,-0.171
9,CAGGAACC,-0.0283
10,CACGTCAA,-0.0909
11,AGATCTAT,-0.12
12,AATTGGTC,0.248
13,ATATCCAT,0.0907
14,CGCTGCTC,-0.205
15,CCTTAATC,0.0878
16,AAATTCGC,0.0398
17,CTACAATC,0.0261
18,ATCGCGTG,-0.0287
19,CAATACAG,0.0862
20,CCGACAGG,0.024
21,CGGATATA,0.21
22,CTTTGGAA,0.0904
23,CAACGCCC,-0.146
24,TAAACAAA,0.0724
25,CGGCTTGA,-0.051

row,Sequence,PBM E-score
1,CCTTACCA,-0.00238
2,CCAGCACC,-0.0265
3,ACTTAAAG,-0.104
4,ACCACCCC,-0.00264
5,AATGTTAT,0.0898
6,CACCTCTA,0.22
7,CTGTTAAC,0.257
8,AAGGTTAG,0.35
9,CGATCAGC,-0.0615
10,GGCCAGTA,0.177
11,AGATCCCG,-0.00475
12,CAGGGCCC,-0.149
13,CGTATTTA,0.107
14,AGGCTACA,0.0325
15,ACTCTCAA,-0.204
16,AGAACATC,-0.159
17,AATGTGCG,0.0232
18,ACAAAGGC,0.0392
19,AACGTGCC,-0.265
20,GGCACTGA,-0.0918
21,AGCTTCTG,-0.0534
22,CTAACTTC,-0.017
23,GGACCTCA,0.0651
24,GCTTCAAA,0.115
25,ATGAGGGC,-0.149

row,Sequence,PBM E-score
1,AACCTATG,0.258
2,CGGTAAGC,-0.0785
3,AGCTTAAA,0.0882
4,CCGCAAGC,-0.141
5,GTCGCGAC,0.357
6,CTTAGCAA,0.00485
7,CACGTGCA,-0.106
8,GAAATTCA,0.145
9,ACTGATTC,-0.0498
10,AGATTTTG,0.162
11,CACAGAGC,-0.133
12,GACATAAC,0.221
13,AGTGTAGG,0.101
14,GGGCTACA,-0.102
15,TGCGGACA,0.0215
16,ACTCAAGT,-0.122
17,AACAACAT,-0.00187
18,GCGCTTAC,-0.256
19,CACCCGCA,-0.0495
20,CTCCGTGC,-0.319
21,ACAGGGAC,-0.0892
22,ATCAACAG,-0.0089
23,AGATAGAA,-0.183
24,CTTATCGA,0.0845
25,TAAACCCA,0.304

row,Sequence,PBM E-score
1,ACACTATA,0.129
2,GTCTATAA,0.163
3,CATGAGGC,-0.147
4,GGTATATA,0.315
5,AGCTCCAT,-0.233
6,AAGATAGG,-0.118
7,AGCATATG,-0.0974
8,ATTGGGGC,-0.0366
9,AAGGCCCG,-0.247
10,ACAAATCG,0.075
11,GCGATGCC,-0.115
12,GTGAGCAA,-0.0348
13,GAGTCAGC,-0.252
14,CCTAGGAC,-0.0226
15,CCCCTCAC,0.00662
16,GCTTCTGA,0.00394
17,GGAACTTA,0.00413
18,AGACATGA,-0.274
19,AAGAGCGT,-0.0279
20,GCTACGCA,-0.186
21,ATTCACAC,-0.088
22,GGCCTCCC,-0.079
23,ACTCCCAT,-0.219
24,AGAATTCA,0.0136
25,CTTCTGGA,0.107

row,Sequence,PBM E-score
1,TGCTTCCA,-0.284
2,AGGGCCAG,-0.0924
3,ACTGCAGT,-0.0604
4,CGCTGTAA,0.148
5,ACGAACAT,0.0966
6,ACACATTG,0.0809
7,TTATACAA,0.275
8,ATTGACTG,-0.136
9,ATTTTCGG,0.129
10,CCGGGACG,-0.205
11,CATCTCCA,-0.0871
12,ATAAGGAA,0.0781
13,GGGATTAA,-0.0499
14,GACATGCC,-0.159
15,AGAAATCT,-0.0876
16,GTCATCTA,0.0299
17,AGCCCTAC,-0.12
18,GTGTTGCA,-0.0574
19,CAATAGCG,-0.0495
